Test results published in PubChem BioAssay AID995 (National Center for Advancing Translational Sciences (NCATS), 2007).
In all, about 72,000 compounds went through this assay and about 710 (0.99%) were called active. This list was built around the results that the source calls inconclusive (neither active nor inactive); the mix of calls is not that of the screen. Calls come from the whole dose curve; as a rule, active = well fitted inhibition curve with a large enough effect; inconclusive = small, poorly fitted or top-dose-only effect; inactive = no such curve, though single readings can be large or run the other way. Potencies of inconclusive entries are left out as doubtful fits.

experiment: qHTS Assay for Inhibitors of the ERK Signaling Pathway using a Homogeneous Screening Assay; conditions: HEK293-V1b, vasopressin-stimulated pERK AlphaScreen; activity, negative = inhibition: at 57.5 µM (top of the series) unless noted; note: nearly all actives have a fitted effect of over 55% in size
Procedure, shortened: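 HEK293 cells stably expressing V1b receptor, seeded overnight in 1% FBS, were treated with compounds for 30 min at 37C, then stimulated 5 min with 25 nM vasopressin; phospho-ERK read by AlphaScreen SureFire after lysis.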
% is set by controls: 0 for no effect and ±100 for the full control effect; potency is the fitted concentration of half-maximal effect; tags give direction and shape of the fitted curve.

Row | Compound | activity, negative = inhibition | Potency
1 | N#Cc1nc(-c2ccco2)oc1N1CCCC1 | inactive: -25.1% | –
2 | CCc1cc2c(nc1CC)CCN(CC/C(C)=N/OC[C@@H](O)[C@@H]1O[C@@H]3OC(C)(C)O[C@@H]3[C@H]1O)C2 | inactive: 32.5% [at 11.5 µM] | –
3 | O=C(NCCN1C(=O)C2C3C=CC(C3)C2C1=O)Nc1cccnc1 (stereo not drawn) | inactive: -9.98% | –
4 | COc1ccccc1OCCCn1c(=O)oc2ccc(C)cc21 | inactive: 12.5% | –
5 | COc1ccc(-c2nc(C#N)c(N3CCCCCC3)o2)cc1 | – | inconclusive [inhibitor, partial curve]
6 | O=S1(=O)C=C(Sc2nc3ccccc3s2)c2ccccc21 | – | active: 12.6 µM
7 | CCOc1c(S(=O)(=O)N2CCCC2)ccc(Cl)c1Cl | – | inconclusive [inhibitor, partial curve]
8 | COc1ccc(CCNC(=O)c2cc3sc(Cl)cc3n2C)cc1OC | – | inconclusive [inhibitor, single point]
9 | Nc1c(C(=O)NCCN2CCOCC2)c2nc3ccccc3nc2n1-c1ccc2c(c1)OCO2 | – | inconclusive [inhibitor, partial curve]
10 | COCc1cc(C)nc(SCC(=O)c2ccc(O)c(O)c2)c1C#N | inactive: -0.0611% | –
11 | CCN1CCC[C@H]1CNC(=O)c1c(O)c(Cl)cc(Cl)c1OC | inactive: -6.85% | –
12 | Cc1cc(C)n(-c2ccc(C(=O)OCC(=O)c3c(N)n(C)c(=O)n(C)c3=O)cc2)n1 | – | inconclusive [inhibitor, single point]
13 | c1cn(-c2cc(-c3ccc4c(c3)OCO4)ncn2)cn1 | inactive: -20.3% | –
14 | O=c1[nH]cnc2c1ncn2C1CC(O)C(CO)O1 (stereo not drawn) | inactive: -9.79% | –
15 | COc1cc(CC(=O)NCc2ccc3c(c2)OCO3)cc(OC)c1OC | – | inconclusive [inhibitor, partial curve]
16 | COc1ccc(OC)c(-n2nnnc2SCC(=O)Nc2ccc(C(=O)N3CCCCC3)cc2)c1 | – | inconclusive [inhibitor, partial curve]
17 | CCN1CCN(C(=O)c2ccccc2N(C)S(=O)(=O)c2ccc(C)cc2)CC1 | – | inconclusive [inhibitor, partial curve, poor fit]
18 | CC(NC(=O)c1ccnc(C(C)(C)C)c1)c1ccccc1 (stereo not drawn) | – | inconclusive [inhibitor, partial curve]
19 | Cn1c(=O)c2c(nc(NCc3ccco3)n2C/C=C/c2ccccc2)n(C)c1=O | – | active: 31.6 µM
20 | N#CNC1=NCN(Cc2ccccc2)CN1 | – | inconclusive [inhibitor, single point]
21 | C/C(=C\C(=O)c1ccncc1)Nc1ccccc1O | – | inconclusive [inhibitor, single point]
22 | COC(=O)c1ccc2c(=O)n(CC3CCCO3)c(SCC(=O)Nc3ccccc3OC)nc2c1 (stereo not drawn) | inactive: -16.2% | –
23 | CCOc1ccccc1N1CCN(S(=O)(=O)CC)CC1 | inactive: -14.7% | –
24 | COc1ccc(-c2nn3c(-c4ccco4)nnc3s2)cc1OC | – | active: 25.1 µM
25 | O=C(OCc1nnc(-c2ccccc2)o1)C1=COCCO1 | inactive: 8.32% | –
26 | COC(=O)Nc1sc2c(c1C(=O)NCc1ccco1)CCC2 | – | inconclusive [inhibitor, partial curve]

Row | Compound | activity, negative = inhibition | Potency
27 | C=CCC1C=CC(Oc2ccc(F)cc2C)C(CO)O1 (stereo not drawn) | inactive: 8.22% [at 11.5 µM] | –
28 | Cc1nnc(SCCC(=O)Nc2nc(-c3ccccc3)ns2)s1 | – | active: 31.6 µM
29 | c1ccc(CCc2nn3c(C4COc5ccccc5O4)nnc3s2)cc1 (stereo not drawn) | inactive: -22.9% | –
30 | O=P(C1=C(N2CCOCC2)/C(=C\c2ccccc2)CC1)(N1CCOCC1)N1CCOCC1 | inactive: -3.67% | –
31 | Cc1cccc(NC(=O)C2CCN(S(=O)(=O)c3cccc4cccnc34)CC2)n1 | – | active: 10 µM
32 | COc1ccccc1S(=O)(=O)Cc1ccc(C(=O)N2CCN(c3cccc(Cl)c3)CC2)o1 | – | inconclusive [inhibitor, single point]
33 | COc1ccc(-n2c(=O)c(CCc3ccccc3)nc3cnc(OC)nc32)cc1 | inactive: -21% | –
34 | c1ccc(Nc2ncnc3ccc(-c4ccc5c(c4)OCO5)cc23)cc1 | – | inconclusive [inhibitor, single point]
35 | CCOC(=O)c1c(C)nn(Cc2ccccc2)c1N | – | inconclusive [inhibitor, partial curve]
36 | CCc1nc(OCc2ccco2)c2sc3nc4c(cc3c2n1)COC(C)(C)C4 | – | inconclusive [inhibitor, partial curve]
37 | c1ccc(CNc2ncnc3c2cnn3-c2ccccc2)cc1 | inactive: 14.9% | –
38 | C[C@@H](C(=O)Nc1ccc2ccccc2c1)[C@@H]1C[C@@]1(C)[C@@H](NC(=O)c1ccncc1Cl)c1ccccc1 | inactive: -0.469% | –
39 | Cc1c(NC(=O)c2cc(-n3cnnc3)ccc2Cl)cccc1-c1nc2ccccc2o1 | inactive: -20.2% | –
40 | Cc1occc1-c1nc(-c2ccncc2)no1 | inactive: -4.26% | –
41 | COCC(=O)N1CCC2(CC1)CCN(c1cccc(-c3ccccc3)c1)CC2 | – | inconclusive [inhibitor, single point]
42 | C=C(C)C(O)/C=C/C=C/c1ccccc1 (stereo not drawn) | inactive: 11% [at 11.5 µM] | –
43 | CCOC(=O)N1CCC2(CC1)C(C#N)=C(N)Oc1c2sc2nc(C)cc(C)c12 | – | inconclusive [inhibitor, partial curve]
44 | COc1ccc(-c2nc3cnc(N4CCNCC4)nc3n(CCc3ccccc3)c2=O)cc1 | inactive: 34% | –
45 | COc1ccc(NC(=O)c2oc3ccccc3c2NC(=O)C(C)(C)C)cc1 | inactive: 36.6% | –
46 | Cc1ccc(OCc2ccoc2C(=O)O)cc1C | – | inconclusive [inhibitor, single point]
47 | c1c[nH]c(CN2CCN(Cc3ncc[nH]3)CC2)n1 | inactive: 6.41% [at 11.5 µM] | –
48 | CCOc1ccccc1C(=O)Nc1cc(Cl)ccc1O | – | active: 10 µM
49 | CCOC(=O)C1CCCN(S(=O)(=O)c2cc(Br)cc3c2N(C(=O)C2CC2)CC3)C1 (stereo not drawn) | – | inconclusive [inhibitor, partial curve]
50 | N#CC1=C(N)Oc2n[nH]c(-c3cccs3)c2C1c1cccs1 (stereo not drawn) | – | inconclusive [inhibitor, partial curve]
51 | N#Cc1c(NC(=O)c2ccc(Cn3cc(Br)cn3)o2)sc2c1CCCCCC2 | – | inconclusive [inhibitor, full curve]
52 | CC(=O)Nc1c(C(=O)c2ccc(F)cc2)oc2ccccc12 | – | inconclusive [inhibitor, full curve, poor fit]

Row | Compound | activity, negative = inhibition | Potency
53 | CNC(=O)c1ccc(-c2sc3nc(N4CCOCC4)c4c(c3c2N)CCCC4)o1 | – | inconclusive [inhibitor, partial curve]
54 | O=C(c1csnn1)N1CCC2(CC1)CN(c1ccccn1)C2 | inactive: 17.2% | –
55 | CCc1cccc(CC)c1N(COC)C(=O)Cn1c(CO)nc2ccccc21 | inactive: 2.13% | –
56 | Cc1c(C)c2c(C)nn(-c3ccccc3)c2[nH]c1=O | – | inconclusive [inhibitor, full curve, poor fit]
57 | Cc1ccccc1OC1C=CC(c2ccccc2)OC1CO (stereo not drawn) | inactive: 30.7% [at 11.5 µM] | –
58 | COc1cc2c(cc1OC)-c1cc(NC3CCCCCCC3)nc(=O)n1CC2 | – | inconclusive [inhibitor, partial curve]
59 | N#CCCn1c(=O)c(CCc2ccccc2)nc2cnc(N3CCOCC3)nc21 | – | inconclusive [inhibitor, partial curve, poor fit]
60 | CN(C)C=Nc1ncc2c3ccccc3n(CCN(C)C)c2c1C#N | inactive: -23.7% | –
61 | COc1ccc(CNc2ncncc2-c2ccc(N(C)C)cc2)c(OC)c1 | inconclusive: -31% [inhibitor] | –
62 | CCN(CC)S(=O)(=O)c1ccc(S(=O)(=O)N(Cc2ccccn2)Cc2ccco2)cc1 | – | inconclusive [inhibitor, single point]
63 | COc1cc(C2Nc3ccc4ncccc4c3C3=C2C(=O)CCC3)cc(OC)c1O (stereo not drawn) | inactive: -6.29% | –
64 | N#Cc1cccc(-c2cc(NCc3cccs3)ncn2)c1 | – | active: 12.6 µM
65 | O=C(c1ccccc1)N(Cc1ccccc1)c1ccccn1 | inactive: -11.4% | –
66 | CN1CCN(c2ccc(NC(=O)c3cccc(OCc4ccccc4)c3)cc2)CC1 | – | inconclusive [inhibitor, partial curve]
67 | Clc1ccc(C2=Nn3c(nnc3-c3n[nH]c4c3CCC4)SC2)cc1Cl | – | inconclusive [inhibitor, full curve]
68 | CC(N=C1NS(=O)(=O)c2ccccc21)c1ccccc1 (stereo not drawn) | inconclusive: -31.8% [inhibitor] | –
69 | O=S(=O)(/C=C/c1ccccc1)Nc1ccc(N2CCOCC2)cc1 | inactive: -7.29% | –
70 | Cc1c(C(=O)N2CCN(c3ccc(C(F)(F)F)cn3)CC2)oc2ccccc12 | – | inconclusive [inhibitor, single point]
71 | Nc1ncnc2c1ncn2[C@@H]1O[C@@H](C(=O)NC2CC2)[C@H](O)[C@@H]1O | – | inconclusive [inhibitor, partial curve]
72 | CCCCC[C@H](O)C=C[C@H]1[C@H](O)CC(=O)[C@H]1CCCCCCC(=O)O | – | inconclusive [inhibitor, full curve]
73 | O=C(O)C1C2CCC(O2)C1C(=O)Nc1cccc(F)c1 (stereo not drawn) | inactive: -0.178% | –
74 | CN(C)c1nc(Oc2ccc(/C=N/O)cc2)nc(N(C)C)n1 | – | inconclusive [inhibitor, single point]
75 | Oc1c(CN2CCOCC2)cc(COCc2ccccc2)c2cccnc12 | inactive: 2.2% | –
76 | COC1=CC(=O)C=C(OC)C1=O | inconclusive: -89.7% [inhibitor] | –
77 | O=C(/C=C/Nc1cccc(O)c1)c1ccccc1 | – | inconclusive [inhibitor, single point]
78 | COc1ccc(-c2nn3c(-c4ccccc4)nnc3s2)cc1OC | – | active: 7.94 µM
